# Assay results reported in PubChem BioAssay AID1631 (National Center for Advancing Translational Sciences (NCATS), 2009).
# Out of some 260,000 compounds screened, about 890 (0.34%) were called active. Inconclusive results, whose numbers are uncertain, are shown with a selection of clear calls. Calls come from the whole dose curve; as a rule, active = well fitted activation curve with a large enough effect; inconclusive = small, poorly fitted or top-dose-only effect; inactive = no such curve, though single readings can be large or run the other way. No potency is given beside an inconclusive call; the fits are too rough.
# Target: Pyruvate kinase PKM (Homo sapiens) (UniProt P14618)
# Test: qHTS Assay for Activators of Human Muscle isoform 2 Pyruvate Kinase; note: nearly all actives have a fitted effect of over 55% in size
# Details: purified PKM2, Kinase-Glo ATP luminescence; Potency: activation; activation: at 57.5 µM (top of the series), 0% is enzyme alone, no compound
# Method in brief: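 Purified hPK-M2 (>95% pure) converted ADP (0.1 mM final) to ATP with 0.5 mM PEP in 50 mM imidazole pH7.2, KCl, MgCl2, Tween 20, BSA; 1 h at room temperature. ATP detected by Kinase-Glo luminescence.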
# Potency is the fitted concentration of half-maximal effect; tags give direction and shape of the fitted curve.
# UniProt P14618, sequence (P14618 whole entry, looked up, canonical isoform): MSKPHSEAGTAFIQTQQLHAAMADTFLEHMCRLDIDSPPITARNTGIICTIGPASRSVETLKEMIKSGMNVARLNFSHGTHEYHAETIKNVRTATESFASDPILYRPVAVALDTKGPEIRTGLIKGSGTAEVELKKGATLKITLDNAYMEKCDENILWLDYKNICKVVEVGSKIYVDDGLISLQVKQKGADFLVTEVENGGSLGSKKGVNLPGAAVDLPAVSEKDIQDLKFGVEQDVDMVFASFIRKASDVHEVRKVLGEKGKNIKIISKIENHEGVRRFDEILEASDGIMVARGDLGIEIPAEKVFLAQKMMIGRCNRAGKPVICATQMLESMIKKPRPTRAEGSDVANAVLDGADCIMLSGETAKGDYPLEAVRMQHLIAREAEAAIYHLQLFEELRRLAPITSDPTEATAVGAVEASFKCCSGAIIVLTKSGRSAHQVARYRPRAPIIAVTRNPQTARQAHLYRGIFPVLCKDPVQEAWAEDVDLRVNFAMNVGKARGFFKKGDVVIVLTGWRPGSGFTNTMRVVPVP
row,Structure (SMILES),Potency
1,O=C(c1ccco1)N1CCN(S(=O)(=O)c2cccs2)CC1,"inconclusive [rising, single point]"
2,COc1ccccc1N1C(=O)CC(N(O)c2ccccc2)C1=O (centres undefined),"inconclusive [rising, single point]"
3,O=C(Nc1ccc(-n2cc(Br)cn2)cc1)c1ccncc1,"inconclusive [rising, single point]"
4,CC(C)c1ccc(-c2csc3nc[nH]c(=O)c23)cc1,inactive
5,O=C(COc1cccnc1[N+](=O)[O-])N1CCN(S(=O)(=O)c2ccc3ccccc3c2)CC1,"inconclusive [rising, single point]"
6,CC(=O)N1CCc2ccc(S(=O)(=O)Nc3ccccc3Cl)cc21,active: 12.6 µM
7,O=C(Nc1ccc2nc(-c3ccco3)c(-c3ccco3)nc2c1)N1CCN(c2ccccn2)CC1,"inconclusive [rising, single point]"
8,CCCC(=O)O[C@@H]1C[C@@H](C)N(C(=O)c2ccccc2)c2ccc(C)cc21,inactive
9,Cc1ccc(CN2CCN(Cc3nc4c(s3)CCCC4)CC2CCO)cc1 (centres undefined),"inconclusive [rising, single point]"
10,O=C(c1ccco1)N1CCN(C(=O)N2c3ccccc3Sc3ccccc32)CC1,"inconclusive [rising, single point]"
11,C=C1C(=O)C=C2CN(C(=O)c3ccccc3)[C@@](Cc3ccc(OC)cc3)(C(=O)OC)[C@@H]12,"inconclusive [rising, partial curve]"
12,COc1ccc(CNC(=O)COC(=O)c2cc(-c3cccs3)nc3ccccc23)cc1OC,"inconclusive [rising, single point]"
13,O=C(O)CCc1ccc(-c2cccs2)n1CCc1ccccc1,"inconclusive [rising, single point]"
14,Cc1cc(C)c(-c2cc(C)nc3ncnn23)c(C)c1,"inconclusive [rising, single point]"
15,Cc1cc(S(=O)(=O)Nc2ccc3c(c2)n(C)c(=O)n3C)ccc1F,"inconclusive [rising, partial curve]"
16,Cc1c(NC(=O)Nc2cccc(Cl)c2)c(=O)n(-c2ccccc2)n1C,"inconclusive [rising, single point]"
17,CNC(=O)c1cc2c(=O)n3cc(C)ccc3nc2n(C(C)C)c1=N,"inconclusive [rising, full curve, poor fit]"
18,CC(=O)N(CN1C(=O)c2ccccc2C1=O)c1cccc(C)c1,inactive
19,O=C1c2ccccc2NC(c2ccccc2)N1Cc1ccco1 (centres undefined),inactive
20,CCOC(=O)CNC(=O)CSc1nnc(-c2ccco2)n1N,inactive
21,O=C1NC(=O)C(Cc2ccccc2)(c2cccnc2)N1 (centres undefined),inactive
22,CC(=O)CCc1c(C)nc2ccc(C)cc2c1Cl,"inconclusive [rising, single point]"
23,Cc1csc2c(N3CCCCC3)ncnc12,"inconclusive [rising, single point]"
24,O=C(CSc1nnc(-c2cnccn2)n1Cc1ccco1)c1ccc(Cl)cc1,"inconclusive [rising, full curve, poor fit]"
25,Cc1cc(=O)[nH]c(SCc2cn3ccccc3n2)n1,active: 14.1 µM

row,Structure (SMILES),Potency
1,CCC(CC)c1nnc(NC(=O)c2cccc(S(=O)(=O)N3CCc4ccccc43)c2)s1,inactive
2,COc1ccc(C(=O)NCCN2C(=O)S/C(=C\c3cccnc3)C2=O)c(OC)c1OC,"inconclusive [rising, partial curve]"
3,Cc1ccc(CN(CC2CCCO2)C(=O)CN2C(=O)C(C(C)C)Oc3ccccc32)o1 (centres undefined),active: 31.6 µM
4,Cn1c(CSCc2ccc(Cl)cc2Cl)n[nH]c1=S,active: 28.2 µM
5,CCCNC(=O)CSc1nnc(-c2ccco2)n1C,inactive
6,Cc1ccc(S(=O)(=O)c2c(N)n(Cc3ccco3)c3nc4ccccc4nc23)cc1,"inconclusive [rising, single point]"
7,CC(C)C(CCNC(=O)CC(Cc1ccccc1)c1ccco1)c1ccco1 (centres undefined),"inconclusive [rising, single point]"
8,NC(=O)CC(NC(=O)Cc1cccc2ccccc12)c1ccc(NCCc2ccc(F)cc2)c([N+](=O)[O-])c1 (centres undefined),"inconclusive [rising, partial curve]"
9,O=C(CN1CCN(C(c2ccccc2)c2ccccc2)CC1)N1CCN(c2ccccc2)CC1,"inconclusive [rising, full curve]"
10,COc1ccc2c(c1)oc(=O)c1cc(OC)ccc12,inactive
11,O=C(CSCC(=O)N1CCCCC1)Nc1nc(-c2ccc(Cl)s2)cs1,inactive
12,S=C(NCc1ccc(Cl)c(Cl)c1)NCc1ccco1,inactive
13,CCS(=O)(=O)Nc1ccc(C2=NN(S(C)(=O)=O)C(c3cccs3)C2)cc1 (centres undefined),"inconclusive [rising, single point]"
14,Cc1ccccc1-n1nnnc1SCc1cc(=O)n2ccsc2n1,active: 0.794 µM
15,COC(=O)CCCCCNc1ccc(C(=O)OC)cc1N,inactive
16,CCc1c(C)nc2cc(-c3ccc(OC)c(OC)c3)nn2c1NCC1CC1,inactive
17,Cc1ccc(-c2csc3nc(C)n(-n4cccc4)c(=O)c23)o1,"inconclusive [rising, partial curve]"
18,O=C(COC(=O)C1CC1)NC(=O)NCc1ccccc1,"inconclusive [rising, single point]"
19,CC1C(c2ccccc2)N(C)C(c2ccccc2)CC1(O)c1ccccc1 (centres undefined),inactive
20,COC(=O)c1nc(-c2ccc(C)cc2)oc1N(C)C,"inconclusive [rising, full curve, poor fit]"
21,CC(=O)N1CCN=C1SCc1ccccc1F,"inconclusive [rising, partial curve]"
22,Cc1ccc(S(=O)(=O)C(C#N)c2nc3ccccc3nc2N2CCCC2)cc1 (centres undefined),"inconclusive [rising, partial curve]"
23,CCOc1cccc2c1OC(c1cc(OC)c(OC)c(OC)c1)N1N=C(c3ccc(C)o3)CC21 (centres undefined),"inconclusive [rising, full curve]"
24,CCN(CC)S(=O)(=O)c1ccc(N2CCCC2)c(C(=O)OCC(=O)N2CCCC2)c1,"inconclusive [rising, single point]"
25,Cc1ccc(Cl)cc1N1CCN(Cc2nc3c(c(=O)[nH]c(=O)n3C)n2Cc2ccccc2F)CC1,inactive

row,Structure (SMILES),Potency
1,O=S(=O)(Nc1ccccc1)c1ccc(NS(=O)(=O)c2c(F)cccc2F)cc1,"inconclusive [rising, partial curve]"
2,CCOC(=O)C(Sc1nnc(-c2ccncc2)o1)C(C)=O (centres undefined),"inconclusive [rising, single point]"
3,Cc1ccc(NC(=O)OCCNC(=O)c2ccncc2)cc1,"inconclusive [rising, single point]"
4,COc1ccc(C(=O)NC23CC4CC(CC(C4)C2)C3)cc1OC,"inconclusive [rising, partial curve, poor fit]"
5,CCOC(=O)c1sc(NC(=O)CSc2nnc(C)s2)c(C(=O)OCC)c1C,"inconclusive [rising, partial curve, poor fit]"
6,O=[N+]([O-])c1cccc(Cl)c1NCCNS(=O)(=O)c1ccccc1,active: 14.1 µM
7,Cc1ccc(CNC(=O)CCS(=O)(=O)c2cc(Br)cc3c2N(C(=O)C2CC2)CC3)o1,active: 7.94 µM
8,O=C(CSc1n[nH]c(-c2cccs2)n1)N1CCN(S(=O)(=O)c2ccccc2)CC1,active: 25.1 µM
9,CC(C)(C)C(=O)/C(=C\c1ccc([N+](=O)[O-])cc1)n1cncn1,"inconclusive [rising, partial curve]"
10,O=C(O)CCc1ccc(-c2cccs2)n1NC(=O)c1ccc(Cl)cc1,"inconclusive [rising, single point]"
11,O=C(N/N=C/C(Br)=C/c1ccccc1)c1ccccc1F,inactive
12,Cc1cc(NS(=O)(=O)c2ccccc2)cc(Cl)c1O,active: 15.8 µM
13,O=C(OCc1nnc(-c2ccccc2)o1)c1cc(F)c(F)cc1Cl,"inconclusive [rising, single point]"
14,Cc1ccc(-c2cc(-c3ccc(F)cc3)c(C#N)c(N)n2)o1,"inconclusive [rising, partial curve]"
15,Cc1ccc(S(=O)(=O)N2CCOCC2)cc1NC(=O)Cn1cc(C(F)(F)F)cc(Cl)c1=O,inactive
16,CC1(C)Cc2c(sc3c2c(=N)n(Cc2ccco2)c(=O)n3Cc2ccc(F)cc2)CO1,"inconclusive [rising, partial curve]"
17,Cc1cc(C(=O)N/N=C/c2ccc(-c3ccc([N+](=O)[O-])cc3Cl)o2)n[nH]1,"inconclusive [rising, single point]"
18,CCOc1ccc(Cc2nc(C)c(CC(=O)N3CCOCC3)c(=O)[nH]2)cc1,"inconclusive [rising, single point]"
19,O=C(C(c1ccccc1)c1ccccc1)N1CCN(Cc2ccco2)CC1,inactive
20,COc1ccc(-c2csc(NC(=O)c3cc(C)on3)c2C#N)cc1OC,"inconclusive [rising, single point]"
21,N#Cc1ccc(NCCc2ccccn2)c([N+](=O)[O-])c1,active: 14.1 µM
22,Fc1ccc(/C=N/NC2=Nc3cccc4cccc2c34)cc1,inactive
23,CC(=O)N1CC(=O)N=C1SCC(=O)Nc1nc(C)c(-c2ccccc2)s1,active: 20 µM
24,O=C(C1=NN[C@@H]2C(=O)N(c3cccc(C(F)(F)F)c3)C(=O)[C@H]12)C(c1ccccc1)c1ccccc1,inactive
